From the supplement of paper PMC7826260
The list shows a part of the results. One pool of 16,384 single-stranded DNAs met each Rep nickase domain in vitro (1 h at 37 °C, 3 µM enzyme); the outer parts of the 90-letter strands are left off. A value is the log2 ratio of uncut reads to the pool without enzyme; the lower, the more was cut; hits are not called. Counts are relative to all reads; uncut strands gain when others are lost, and binding without cutting may add a little.

Assays:
Assay in all cases: uncleaved DNA left, log2 of reads against the no-enzyme library (log2 ratio); higher = less cleavage (more negative = more Rep cleavage of the k-mer); sequences stand for … in CTCGTCCG…ACCGGAGA
[1] = tested on: T1, Rep nickase domain of Muscovy duck circovirus
T1 sequence (residues 1-111, tag not shown): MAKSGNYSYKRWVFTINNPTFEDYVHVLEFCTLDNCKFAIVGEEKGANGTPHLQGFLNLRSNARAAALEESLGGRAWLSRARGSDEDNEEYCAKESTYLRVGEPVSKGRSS
Method: (§1)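 A pool of 90-nt single-stranded DNAs with seven random bases just before the constant AC of the nick site (name = the seven bases) was cut by 3 µM recombinant His6-SUMO-tagged Rep nickase domain (300 nM DNA, 50 mM HEPES pH 8.0, 50 mM NaCl, 1 mM MnCl2, 1 h, 37 °C, three replicates). Uncut DNA was amplified and sequenced.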

[2] = tested on: T2, Rep nickase domain of banana bunchy top virus
T2 sequence (residues 1-94, tag not shown): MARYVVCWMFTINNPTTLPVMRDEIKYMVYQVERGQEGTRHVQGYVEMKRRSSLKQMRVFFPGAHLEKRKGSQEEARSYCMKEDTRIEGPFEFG
Method: as §1

[3] = tested on: T3, Rep nickase domain of cabbage leaf curl virus
T3 sequence (residues 1-116, tag not shown): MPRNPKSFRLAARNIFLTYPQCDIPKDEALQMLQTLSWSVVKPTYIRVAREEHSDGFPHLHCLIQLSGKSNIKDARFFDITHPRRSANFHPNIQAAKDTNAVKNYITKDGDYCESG
Method: as §1

[4] = tested on: T4, Rep nickase domain of chickpea chlorotic dwarf virus
T4 sequence (residues 1-124, tag not shown): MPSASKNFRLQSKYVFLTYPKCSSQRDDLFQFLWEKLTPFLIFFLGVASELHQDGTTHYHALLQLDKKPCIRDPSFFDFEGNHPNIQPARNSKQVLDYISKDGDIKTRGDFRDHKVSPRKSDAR
Method: as §1

[5] = tested on: T5, Rep nickase domain of faba bean necrotic yellows virus
T5 sequence (residues 1-98, tag not shown): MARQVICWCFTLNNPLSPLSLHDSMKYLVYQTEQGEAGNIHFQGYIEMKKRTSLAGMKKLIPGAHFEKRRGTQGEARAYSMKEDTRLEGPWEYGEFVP
Method: as §1

[6] = tested on: T6, Rep nickase domain of maize striate mosaic virus
T6 sequence (residues 1-117, tag not shown): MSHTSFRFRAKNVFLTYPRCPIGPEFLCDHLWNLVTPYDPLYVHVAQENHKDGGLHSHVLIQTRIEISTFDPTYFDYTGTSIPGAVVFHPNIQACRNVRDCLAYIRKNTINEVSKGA
Method: as §1

[7] = tested on: T7, Rep nickase domain of porcine circovirus 2
T7 sequence (residues 2-116, tag not shown): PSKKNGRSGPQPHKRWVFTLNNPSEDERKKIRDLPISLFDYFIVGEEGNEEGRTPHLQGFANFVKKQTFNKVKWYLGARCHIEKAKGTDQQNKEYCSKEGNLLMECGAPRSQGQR
Method: as §1

[8] = tested on: T8, Rep nickase domain of tomato golden mosaic virus
T8 sequence (residues 1-124, tag not shown): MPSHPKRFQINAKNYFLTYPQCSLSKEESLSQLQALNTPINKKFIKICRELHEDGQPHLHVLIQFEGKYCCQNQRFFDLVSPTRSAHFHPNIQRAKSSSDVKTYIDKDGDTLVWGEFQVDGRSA
Method: as §1

[9] = tested on: T9, Rep nickase domain of tomato yellow leaf curl virus
T9 sequence (residues 1-136, tag not shown): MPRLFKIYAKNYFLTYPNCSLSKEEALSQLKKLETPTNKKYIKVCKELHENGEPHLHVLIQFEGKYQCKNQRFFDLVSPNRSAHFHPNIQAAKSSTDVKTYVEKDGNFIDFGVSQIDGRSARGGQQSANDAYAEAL
Method: as §1

[10] = tested on: T10, Rep nickase domain of wheat dwarf virus
T10 sequence (residues 1-137, tag not shown): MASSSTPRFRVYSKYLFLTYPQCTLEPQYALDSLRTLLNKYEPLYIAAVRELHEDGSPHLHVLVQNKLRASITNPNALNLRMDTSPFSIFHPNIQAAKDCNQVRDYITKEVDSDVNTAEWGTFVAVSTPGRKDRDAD
Method: as §1

Sequence | uncleaved DNA left (log2) [1] | uncleaved DNA left (log2) [2] | uncleaved DNA left (log2) [3] | uncleaved DNA left (log2) [4] | uncleaved DNA left (log2) [5] | uncleaved DNA left (log2) [6] | uncleaved DNA left (log2) [7] | uncleaved DNA left (log2) [8] | uncleaved DNA left (log2) [9] | uncleaved DNA left (log2) [10]
CATGGTA | -0.0475 | -0.129 | -0.0998 | -0.187 | 0.0203 | -0.0822 | -0.0733 | 0.00526 | -0.0881 | -0.071
CGCGTCA | 0.161 | 0.00808 | -0.075 | -0.546 | -0.0857 | -0.323 | 0.0615 | 0.106 | -0.0223 | -0.0532
TTCCGCC | -0.0967 | -0.0708 | -0.021 | -0.254 | -0.0943 | -0.438 | 0.000133 | -0.124 | -0.0438 | -0.0789
TCTAGAT | -0.0496 | -0.0312 | 0.21 | 0.519 | 0.0439 | 0.963 | 0.0658 | -0.124 | -0.213 | -0.166
CCAGCCC | -0.102 | 0.00842 | 0.0415 | -0.323 | 0.14 | -0.37 | -0.0285 | 0.00288 | 0.0366 | -0.0435
TGCTGGT | -0.0535 | -0.0959 | 0.121 | 0.0253 | 0.0848 | 0.248 | -0.617 | 0.00951 | -0.05 | -0.00256
TAGCGCT | -0.0565 | -0.105 | -0.353 | -1.31 | -0.133 | -0.446 | -2.69 | -0.0316 | -0.0676 | -0.172
TTTACCC | -0.217 | 0.102 | 0.116 | -2.03 | 0.0593 | 0.00864 | -1.04 | -0.0483 | 0.114 | 0.00949
GTTTCCG | -0.0296 | -0.0825 | -0.404 | -0.597 | -0.054 | -0.785 | 0.00522 | -0.0655 | -0.0318 | -0.13
AGAATAG | 0.0115 | 0.0375 | -0.783 | -0.487 | -0.0291 | -1.27 | 0.161 | -0.000614 | -0.032 | -0.0925
CTCTTAA | -0.103 | -0.166 | -0.219 | -0.444 | -0.0742 | -0.781 | -0.134 | 0.052 | -0.184 | -0.127
TATGACA | 0.0615 | -0.0134 | 0.198 | -2.08 | 0.0293 | 0.393 | -0.0422 | -0.0376 | 0.059 | 0.101
ATAATTC | -0.0898 | -0.215 | 0.24 | -0.22 | -0.127 | -1.03 | 0.0522 | -0.0648 | -0.198 | -0.0776
ACATAAT | -2.22 | -0.0416 | -0.418 | -1.7 | 0.0508 | -0.924 | -3.49 | 0.00411 | -0.122 | -0.0218
GACAAAC | 0.0662 | 0.0577 | 0.274 | 0.731 | 0.00584 | 0.424 | 0.252 | 0.00752 | 0.0442 | 0.131
GTGTATG | 0.387 | 0.112 | 0.256 | 0.583 | 0.178 | 0.335 | 0.348 | 0.305 | 0.229 | 0.247
GAAATTC | 0.0688 | 0.04 | 0.279 | 0.594 | 0.0469 | 0.758 | 0.0245 | -0.00358 | 0.0678 | 0.0571
AATACGA | 0.0561 | -0.118 | 0.0116 | -0.61 | 0.0245 | -0.91 | 0.0146 | -0.0198 | -0.0456 | -0.108
AACGGCC | 0.057 | 0.103 | -0.0231 | 0.205 | 0.0249 | -0.386 | -0.00233 | 0.0495 | 0.103 | 0.077
CCTTAGG | -0.0595 | 0.0293 | 0.336 | 1.13 | -0.0175 | 1.01 | 0.00971 | -0.0525 | -0.0451 | 0.00565
TGAGTAC | 0.1 | -0.054 | 0.326 | -0.00784 | -0.00994 | 0.352 | 0.0325 | 0.0121 | -0.0316 | 0.0725
TCGGTCT | -0.0824 | -0.017 | 0.222 | -1.05 | 0.036 | 0.121 | -0.126 | -0.0366 | -0.0272 | 0.0737
CTCTGGT | -0.131 | -0.0554 | 0.045 | 0.0803 | 0.0101 | 0.314 | -1.02 | -0.0683 | -0.0378 | -0.0785
GGTGAGT | -0.122 | -0.00686 | 0.607 | 1.36 | -0.0169 | 1.81 | 0.0483 | -0.103 | -0.0975 | -0.0646
TGTGCTC | -0.0177 | -0.0124 | 0.127 | 0.22 | -0.0306 | 0.277 | -0.0225 | -0.125 | -0.0581 | -0.0187
GTTGCCC | -0.0495 | 0.00324 | 0.158 | 0.508 | 0.0857 | 0.259 | -0.108 | -0.0404 | 0.0224 | 0.0147
GGGCCTG | -0.0956 | 0.0701 | 0.462 | 1.41 | -0.049 | 2.05 | 0.184 | 0.0115 | 0.0285 | 0.063
TCAAGTT | 0.0573 | 0.0317 | -0.767 | -2.51 | 0.0312 | -0.275 | 0.0129 | -0.0392 | 0.0249 | -0.204
ACTTCGA | -0.0357 | -0.144 | -0.84 | -0.71 | -0.00759 | -1.37 | 0.122 | -0.0988 | -0.015 | -0.118
GTGGACT | -0.000757 | 0.138 | 0.844 | 1.96 | -0.103 | 2.3 | 0.168 | 0.0961 | -0.0308 | 0.143
